From PubChem BioAssay AID887 (National Center for Advancing Translational Sciences (NCATS), 2007)
Several values for one entry are separate records, joined by “and”; a condition that tells them apart may be missing. Equal entries are not always repeated. Among all 74,000 compounds or so, about 1,100 (1.5%) were called active. Inconclusive means that the source gave no clear call. Such entries were picked first, then a sample of the others. Calls come from the whole dose curve; as a rule, active = well fitted inhibition curve with a large enough effect; inconclusive = small, poorly fitted or top-dose-only effect; inactive = no such curve, though single readings can be large or run the other way. Potencies of inconclusive entries are doubtful fits and often do not repeat. Where a structure was tested more than once in an assay, its records may differ in their call.

The compounds below were run against Polyunsaturated fatty acid lipoxygenase ALOX15 (Homo sapiens) (UniProt P16050) (assay: qHTS Assay for Inhibitors of 15-hLO (15-human lipoxygenase)). Settings: purified 15hLO-1, xylenol orange hydroperoxide absorbance; activity change, negative = inhibition: at 57.1 µM (top of the series) unless noted.
In short: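 Inhibition is scored from a chromogenic endpoint. After 15 min enzyme-compound contact, arachidonic acid (50 uM final) reacts 6 min with 40 nM 15hLO-1 at room temperature, then Fe-XO reagent is added for 30 min and absorbance ratio recorded.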
% is set by controls: 0 for no effect and ±100 for the full control effect; potency is the fitted concentration of half-maximal effect; tags give direction and shape of the fitted curve.
Note: nearly all actives have a fitted effect of over 55% in size.

UniProt P16050, sequence (P16050 whole entry, looked up): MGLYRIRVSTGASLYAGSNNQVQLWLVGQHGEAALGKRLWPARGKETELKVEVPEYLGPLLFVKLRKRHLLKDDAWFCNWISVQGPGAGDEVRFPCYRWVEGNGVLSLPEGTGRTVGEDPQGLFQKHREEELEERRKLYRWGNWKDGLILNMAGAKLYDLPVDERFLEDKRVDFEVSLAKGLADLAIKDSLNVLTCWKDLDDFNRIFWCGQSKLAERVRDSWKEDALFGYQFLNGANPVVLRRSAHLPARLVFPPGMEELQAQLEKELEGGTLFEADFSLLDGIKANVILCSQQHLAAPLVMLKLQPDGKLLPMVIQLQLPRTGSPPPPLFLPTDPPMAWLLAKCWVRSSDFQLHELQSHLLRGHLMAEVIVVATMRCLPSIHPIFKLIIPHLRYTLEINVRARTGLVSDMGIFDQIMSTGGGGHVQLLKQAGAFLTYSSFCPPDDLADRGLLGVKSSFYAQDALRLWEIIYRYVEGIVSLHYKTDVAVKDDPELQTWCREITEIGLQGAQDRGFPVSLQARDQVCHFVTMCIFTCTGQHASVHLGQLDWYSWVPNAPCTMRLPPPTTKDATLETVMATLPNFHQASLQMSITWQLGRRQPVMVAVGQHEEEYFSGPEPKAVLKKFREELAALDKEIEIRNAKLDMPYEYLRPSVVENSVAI

| SMILES | Potency | activity change, negative = inhibition |
| --- | --- | --- |
| CN(C)c1ccc(N)cc1 | inconclusive: 0.794 µM [inhibitor, full curve] |  |
| COc1ccc(OC)c(C(O)C(C)N)c1 (stereo not given) |  | inactive: -0.275% |
| N#CC(C#N)=NNc1ccc(OC(F)(F)F)cc1 | inconclusive: 31.6 µM [inhibitor, single point] |  |
| CC(C)CC(N)C1(c2ccc(Cl)cc2)CCC1 (stereo not given) | inconclusive: 31.6 µM [inhibitor, single point] |  |
| C[C@]12CC[C@@H]3C(=CCc4cc(O)ccc43)[C@@H]1CCC2=O | inconclusive: 6.31 µM [inhibitor, partial curve] |  |
| O=C1C2(Cl)C3(Cl)C4(Cl)C(Cl)(Cl)C5(Cl)C3(Cl)C1(Cl)C5(Cl)C24Cl (stereo not given) | inconclusive: 1.58 µM [inhibitor, full curve] and inconclusive: 39.8 µM [inhibitor, partial curve, poor fit] |  |
| N#C/C(=C\c1ccc(O)c(O)c1)C(N)=S | active: 2 µM and active: 3.98 µM |  |
| O=NO | inconclusive: 31.6 µM [inhibitor, partial curve] |  |
| CCc1nnc(NC(=O)CCc2nc(C3=CCN(C)CC3)no2)s1 | inconclusive: 31.6 µM [inhibitor, single point] |  |
| COCc1cc(C)c(C#N)c(=S)[nH]1 | active: 1.58 µM |  |
| CC(N)C(O)c1ccc(O)c(O)c1 (stereo not given) | inactive |  |
| CN(C)[C@@H]1C(=O)C(C(N)=O)=C(O)[C@@]2(O)C(=O)C3=C(O)c4c(O)cccc4[C@@](C)(O)[C@H]3[C@H](O)[C@@H]12 | inconclusive: 0.398 µM [inhibitor, full curve, poor fit] |  |
| O=C(NCc1ccc2c(c1)OCO2)c1cc(-n2cnnc2)ccc1Cl | inconclusive: 15.8 µM [inhibitor, partial curve] |  |
| O=P1(N(CCCl)CCCl)NCCCO1 (stereo not given) | inconclusive: 39.8 µM [inhibitor, single point] |  |
| CN(C)P(=NC(=S)c1cccn1C)(N(C)C)N(C)C | inconclusive: 39.8 µM [inhibitor, single point] |  |
| COC[C@H]1OC(=O)c2coc3c2[C@@]1(C)C1=C(C3=O)[C@H]2CCC(=O)[C@@]2(C)C[C@H]1OC(C)=O | inconclusive: 15.8 µM [inhibitor, partial curve] |  |
| CC(C)(C)c1cc(O)ccc1O | active: 20 µM |  |
| Brc1c(NC2=NCCN2)ccc2nccnc12 | inconclusive: 15.8 µM [inhibitor, partial curve] |  |
| CCOP(=S)(OCC)Oc1nc(Cl)c(Cl)cc1Cl | inconclusive: 39.8 µM [inhibitor, single point] |  |
| N#C/C(=C\c1ccc(O)c(O)c1)C(=O)NCCCNC(=O)/C(C#N)=C/c1ccc(O)c(O)c1 | active: 3.16 µM |  |
| CCOC(=O)c1ncn2c1CN(C)C(=O)c1cc(N=[N+]=[N-])ccc1-2 | inconclusive: 25.1 µM [inhibitor, single point] |  |
| C=CCc1c(C)[nH]c(=S)c(C#N)c1C | active: 15.8 µM |  |
| Clc1ccc(C2=CCC[C@H]3CC[C@@H]2N3)cn1 | inconclusive: 15.8 µM [inhibitor, partial curve, poor fit] |  |
| CN(C)[C@@H]1C(=O)C(C(N)=O)=C(O)[C@]2(O)C(=O)C3=C(O)c4c(O)cccc4[C@@](C)(O)[C@H]3[C@H](O)[C@@H]12 | inconclusive: 3.16 µM [inhibitor, full curve, poor fit] |  |

| SMILES | Potency | activity change, negative = inhibition |
| --- | --- | --- |
| O=C1NO[C@@H]2CN[C@@H](C(=O)O)[C@H]12 | inconclusive: 25.1 µM [inhibitor, partial curve] |  |
| Cc1ccc(Cn2ccc(NC(=O)c3cc(-c4ccco4)on3)n2)cc1 | inconclusive: 25.1 µM [inhibitor, single point] |  |
| c1ccc(C[N+]23CN4CN(CN(C4)C2)C3)cc1 |  | inactive: -3.9% [at 11.4 µM] |
| CC(=O)O.CC(=O)O.[Cd] | active: 15.8 µM |  |
| COc1cccc(OC)c1C1=NCC(=O)Nc2c1oc1ccc(Br)cc21 | inconclusive: 31.6 µM [inhibitor, single point] |  |
| COc1ccc2c(c1)[C@]13CCCC[C@@H]1[C@H](C2)NCC3 |  | inactive: 14.8% |
| O=C(O)c1cc[c]([Hg][Cl])cc1 | active: 1.58 µM |  |
| Cn1c2c(c3ccccc31)CCNCC2 | inconclusive: 39.8 µM [inhibitor, single point] |  |
| CCn1cnc2c(Nc3cccc(Cl)c3)nc(N[C@@H]3CCCC[C@H]3N)nc21 | inconclusive: 39.8 µM [inhibitor, single point] |  |
| COC(=O)NC(=S)Nc1ccccc1NC(=S)NC(=O)OC | inconclusive: 12.6 µM [inhibitor, partial curve] |  |
| O=C1OC(=O)c2ccccc21 | inconclusive: 31.6 µM [inhibitor, partial curve] |  |
| COC(C)C(O)(C(=O)OC1=CCN2CC[C@H](O)[C@H]12)C(C)C (stereo not given in full) | inconclusive: 20 µM [inhibitor, single point] |  |
| CCCCCCCCCCCCCCCC[N+](C)(C)C | inconclusive: 39.8 µM [inhibitor, single point] |  |
| CS(=O)c1ccc(-c2nc(-c3ccc(F)cc3)c(-c3ccncc3)[nH]2)cc1 (stereo not given) | inconclusive: 20 µM [inhibitor, single point] |  |
| N#CC(C#N)=Cc1cc(O)c(O)c(O)c1 | active: 7.94 µM |  |
| CC1=CC(=O)NP(=O)(Oc2ccc3ccccc3c2)N1 (stereo not given) | active: 12.6 µM |  |
| O=C1C2CC=CCC2C(=O)N1SC(Cl)(Cl)Cl (stereo not given) | inconclusive: 1 µM [inhibitor, full curve] and inconclusive: 1 µM [inhibitor, partial curve] |  |
| CN(C)c1ccc2c(c1)N=C(c1ccco1)OP2(=S)N1CCOCC1 (stereo not given) | inconclusive: 20 µM [inhibitor, partial curve] |  |
| COc1ccc(C2=NCC(=O)N(CC(=O)NCc3ccco3)c3sc4c(c32)CCCC4)cc1 | inconclusive: 25.1 µM [inhibitor, single point] |  |
| CCOC(=O)c1c(N)n(Cc2ccco2)c2nc3ccccc3nc12 | inconclusive: 25.1 µM [inhibitor, single point] |  |
| N[C@@H](Cc1cc(O)c(O)cc1O)C(=O)O | inconclusive: 2.51 µM [inhibitor, partial curve] |  |
| Cc1ccc(-c2cn3c(=S)[nH]nc3s2)cc1 | inconclusive: 15.8 µM [inhibitor, partial curve, poor fit] |  |
| CCN(CC)/[N+]([O-])=N/O | inconclusive: 20 µM [inhibitor, single point] |  |
| CCCN(CCC)[C@H]1CCc2c(F)ccc(O)c2C1 | inconclusive: 39.8 µM [inhibitor, single point] |  |

| SMILES | Potency | activity change, negative = inhibition |
| --- | --- | --- |
| COC(=O)C(O)(c1c(C)[nH]n(-c2ccccc2)c1=O)C(F)(F)F (stereo not given) | inconclusive: 7.94 µM [inhibitor, full curve] |  |
| c1ccc(Nc2ccc(Nc3ccccc3)cc2)cc1 | active: 3.98 µM |  |
| Cc1nnc2n1-c1sc(CCC(=O)N3CCOCC3)cc1C(c1ccccc1Cl)=NC2 | inconclusive: 31.6 µM [inhibitor, single point] |  |
| CN1C[C@H](C(=O)N[C@]2(C)O[C@@]3(O)[C@H]4CCCN4C(=O)[C@H](Cc4ccccc4)N3C2=O)C[C@H]2c3cccc4[nH]cc(c34)C[C@@H]21 | active: 12.6 µM |  |
| Cc1o[nH]c(=O)c1C[C@H](N)C(=O)O | inactive |  |
| O=C(Oc1ccccc1)N1CCC2(CC1)CCN(C(c1ccccc1)c1ccccc1)CC2 |  | inactive: -9.71% |
| c1ccc(CCN2CCCCCC2)nc1 |  | inactive: 5.6% [at 11.4 µM] |
| N#CC(C#N)=NNc1cccc(Cl)c1 | inconclusive: 25.1 µM [inhibitor, single point] |  |
| c1ccc(Nc2cccc3ccccc23)cc1 | inconclusive: 31.6 µM [inhibitor, single point] |  |
| C[CH2][Hg][S]c1ccccc1C(=O)O | active: 1.26 µM |  |
| O=C1C=C2C=C[C@H]3C[C@@]2(O1)[C@H]1CCCCN31 |  | inactive: 9.54% [at 25.6 µM] |
| CN1CC[C@]2(C)c3cc(O)ccc3N(C)[C@@H]12 | inconclusive: 3.16 µM [inhibitor, single point] and inconclusive: 3.98 µM [inhibitor, partial curve] |  |
| Cc1cc(OC(=O)CCNC(=O)OC(C)(C)C)c2c3c(c(=O)oc2c1)CCC3 | inconclusive: 7.94 µM [inhibitor, single point] |  |
| Cc1cc(Br)ccc1N1C(=O)CC(=O)NC1=O | inconclusive: 5.01 µM [inhibitor, single point] |  |
| CN1[C@@H]2CC[C@H]1CC(OC(=O)c1cc(Cl)cc(Cl)c1)C2 (stereo not given in full) | inconclusive: 10 µM [inhibitor, partial curve] |  |
| CC(C)(C)NCc1cccn1-c1sc2c(c1C#N)CCCC2 | inconclusive: 0.501 µM [inhibitor, full curve, poor fit] |  |
| Cc1cc(NC(=O)COC(=O)c2c(C)nn(Cc3ccccc3Cl)c2Cl)no1 | inconclusive: 39.8 µM [inhibitor, single point] |  |
| CN(C)c1ccc(/C=C2\CCCN=C2c2cccnc2)cc1 | inconclusive: 25.1 µM [inhibitor, single point] |  |
| CCCCN1C(=O)NC(=O)C2(Cc3c(nc4c(C)cccn4c3=O)N3CCc4ccccc4C32)C1=O (stereo not given) |  | inactive: 5.91% |
| CC(C)(C)c1cc(C=C(C#N)C#N)cc(C(C)(C)C)c1O | inconclusive: 3.98 µM [inhibitor, full curve] |  |
| O=C(O)c1nn(Cc2ccc(Cl)cc2Cl)c2ccccc12 |  | inactive: 7.04% [at 25.6 µM] |
| CC(C)[C@@H]1CN[C@H](C(=O)O)[C@@H]1CC(=O)O | inconclusive: 15.8 µM [inhibitor, single point] |  |
